Results as given in PubChem BioAssay AID686978 (National Center for Advancing Translational Sciences (NCATS), 2013).
Values joined by “and” are separate entries in the source; they are usually repeats but may differ in a detail not shown here. Identical values can stand only once. About 64,000 (15%) of roughly 420,000 compounds were called active. Inconclusive means that the source gave no clear call. Such entries were picked first, then a sample of the others. Calls follow the shape of the dose curve; as a rule, active = well fitted inhibition curve with a large enough effect; inconclusive = small, poorly fitted or top-dose-only effect; inactive = flat fitted curve, though single readings scatter. Where the call is inconclusive, the potency comes from a doubtful curve fit.

Assay: qHTS for Inhibitors of human tyrosyl-DNA phosphodiesterase 1 (TDP1): qHTS in cells in absence of CPT; also: nearly all actives have a fitted effect of over 55% in size
Settings: DT40 Tdp1-/- hTDP1 cells, no CPT, ATP luminescence, 48 h; activity change, negative = growth inhibition: at 46.2 µM (top of the series) unless noted
Summary of the method: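 Luminescent ATP content (CellTiter-Glo) served as the growth readout. Knockout chicken DT40 cells expressing human TDP1 were exposed to compounds without camptothecin for a minimum 48 hr at 37 °C.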
% is scaled to controls: 0 for no effect and ±100 for the full control effect; potency is read from the fitted curve at half-maximal effect; tags tell the direction and shape of the fitted curve.

Which Potency does the source give for `O=C(NNC(=O)c1cc(Cl)ccc1O)c1cccc(S(=O)(=O)N2CCOCC2)c1` here?
Its Potency is inconclusive: 20.6 µM [inhibitor, single point].

With `CC(/C=C/C=C/c1ccccc1)=N/NC(=O)CNc1ccccc1C` as the compound, how does the Potency read?
The Potency was inconclusive: 11.6 µM [inhibitor, partial curve, poor fit].

Which Potency does the source give for `COc1ccc(-c2csc(N(Cc3ccco3)C(=O)c3cccs3)n2)cc1` here?
Its Potency is inconclusive: 29.1 µM [inhibitor, single point].

Which Potency does the source give for `COc1ccc(NC(=S)N2CCC3CC2c2c(Cl)cccc23)c(OC)c1` (centres undefined) here?
The Potency was inconclusive: 25.9 µM [inhibitor, single point].

For `CCOC(=O)N1CCN(S(=O)(=O)c2cc(-c3nn4c(C)nnc4c4ccccc34)ccc2C)CC1`, which Potency is on record?
The Potency was active: 25.9 µM.

For `C#CCNC(=O)C1=C[C@H](C2CCCCC2)C[C@H](OCc2ccc(CO)cc2)O1`, which Potency is on record?
The Potency was inconclusive: 13 µM [inhibitor, partial curve].

For `COc1ccc(NC(=S)NC(=O)c2ccccc2Cl)cc1`, which Potency is on record?
The Potency was inconclusive: 13 µM [inhibitor, partial curve].

Which activity change, negative = growth inhibition does the source give for `COc1ccc(CNC(=O)N2CCN(C(=O)c3ccccc3)CC2)cc1` here?
Its activity change, negative = growth inhibition is inconclusive: -35.4% [inhibitor].

With `CCOC(=O)N1CCC(N(C(=O)Nc2ccc(CC)cc2)C(C)CC)CC1` (centres undefined) as the compound, how does the Potency read?
The Potency was active: 23.1 µM.

For `O=C1c2[nH]nc(-c3ccccc3O)c2C(c2ccc(F)cc2)N1Cc1ccco1` (centres undefined), which Potency is on record?
Its Potency is active: 16.4 µM.

With `CC1([N+](=O)[O-])COC2(CCCCC2)OC1` as the compound, how does the Potency read?
The Potency was inconclusive: 0.0052 µM [inhibitor, full curve].

With `CCOC(=O)C1(Cc2ccc(OC)cc2)CCN(C(=O)c2sc(C)nc2C)CC1` as the compound, how does the Potency read?
The Potency was active: 23.1 µM.

For `CSc1cccc(NC(=O)Cn2nnc(C(=O)NCCc3ccccc3)c2N)c1`, which “activity change, negative = growth inhibition” value is on record?
Its value is inactive: -2.06%.

For `O=C(CCS(=O)(=O)c1ccc(Br)cc1)Nc1ccc(Br)cc1F`, which “activity change, negative = growth inhibition” value is on record?
The value was inactive: -3.38%.

Which “activity change, negative = growth inhibition” value does the source give for `O=C1CC(N2CCN(c3ccc(O)cc3)CC2)C(=O)N1c1ccc2c(c1)OCO2` (centres undefined) here?
The value was inactive: -12%.

With `COc1ccccc1N1CCN(C(=O)C2CCN(S(=O)(=O)c3ccccc3F)CC2)CC1` as the compound, how does the Potency read?
Its Potency is active: 23.1 µM.

Which Potency does the source give for `Cc1csc(-c2coc3cc(O)cc(C)c3c2=O)n1` here?
Its Potency is inconclusive: 16.4 µM [inhibitor, partial curve].

With `CC(C)NC(=O)CN1C(=O)c2ccccc2S1(=O)=O` as the compound, how does the Potency read?
The Potency was inconclusive: 25.9 µM [inhibitor, single point].

For `O=C(COc1ccccc1)N(Cc1cc2ccccc2[nH]c1=O)CC1CCCO1` (centres undefined), which Potency is on record?
Its Potency is inconclusive: 23.1 µM [inhibitor, partial curve, poor fit].

With `O=C(NN=Cc1ccccc1O)NN=Cc1ccccc1O` as the compound, how does the Potency read?
Its Potency is active: 5.8 µM.

For `CC(=O)c1cn(CC(=O)Nc2ccccc2)c2ccccc12`, which Potency is on record?
Its Potency is active: 13 µM.

Which Potency does the source give for `O=C(O)c1cccc(Nc2nc(-c3cccnc3)nc3ccccc23)c1` here?
Its Potency is inconclusive: 8.2 µM [inhibitor, partial curve].

With `COc1ccc(S(=O)(=O)Cc2ccc(C(=O)NC3CCCCC3)o2)cc1` as the compound, how does the Potency read?
Its Potency is inconclusive: 29.1 µM [inhibitor, single point] and inconclusive: 16.4 µM [inhibitor, single point].

With `COCCCNc1cc(C)nc2ccccc12` as the compound, how does the “activity change, negative = growth inhibition” value read?
Its value is inactive: 8.8%.

With `c1cnc2c(-c3nccc4c3[nH]c3ccccc34)cccc2c1` as the compound, how does the activity change, negative = growth inhibition read?
The activity change, negative = growth inhibition was inactive: -11.2% [at 9.04 µM].

Which “activity change, negative = growth inhibition” value does the source give for `COc1ccc(C2/C(=C(/O)c3ccccc3)C(=O)C(=O)N2c2ccccn2)cc1` (centres undefined) here?
Its value is inactive: 17.9%.

With `CC(/C=N/NC(=O)c1cc(-c2cccn2C)n[nH]1)=C\c1ccccc1` as the compound, how does the Potency read?
The Potency was inconclusive: 25.9 µM [inhibitor, single point].

With `COC1=C(Nc2ccc(C)cc2)C(=O)c2ccccc2C1=O` as the compound, how does the Potency read?
The Potency was active: 16.4 µM.

Which “activity change, negative = growth inhibition” value does the source give for `CCn1c(C(=O)O)c(CC(=O)NC2CCCCCC2)c2ccccc21` here?
Its value is inactive: 7.5%.

For `CCC1(C2CCN(Cc3cccc4ccccc34)CC2)NC(=O)N(Cc2ccc3c(c2)OCO3)C1=O` (centres undefined), which Potency is on record?
The Potency was inconclusive: 29.1 µM [inhibitor, single point].

With `COc1ccc(CSc2nc3ccccc3[nH]2)cc1` as the compound, how does the Potency read?
Its Potency is inconclusive: 29.1 µM [inhibitor, single point].

Which Potency does the source give for `CC(C)(C)c1nc2ccc(Cl)cn2c1CC1CCCCC1` here?
The Potency was inconclusive: 29.1 µM [inhibitor, single point].

Which Potency does the source give for `CCCCC(=O)Nc1ccc(C(=O)OCc2cc(=O)n3nc(C4CC4)sc3n2)cc1` here?
Its Potency is inconclusive: 29.1 µM [inhibitor, single point].

Which Potency does the source give for `O=C(C[n+]1cc(-c2ccc(F)cc2)n2c1CCC2)Nc1nc(-c2ccc(F)cc2)cs1` here?
Its Potency is inconclusive: 10.3 µM [inhibitor, partial curve].

Which Potency does the source give for `Cc1cc(C)c(NC(=O)c2ccoc2C)c(C)c1` here?
Its Potency is inconclusive: 0.116 µM [inhibitor, full curve, poor fit].

For `COCCN(C(=S)Nc1ccc(C)cc1C)C(C)c1cccs1` (centres undefined), which Potency is on record?
The Potency was inconclusive: 32.6 µM [inhibitor, single point].

For `O=C1CSC(c2cccc([N+](=O)[O-])c2)N1CCN1CCCCC1` (centres undefined), which “activity change, negative = growth inhibition” value is on record?
Its value is inactive: 2.03%.

Which “activity change, negative = growth inhibition” value does the source give for `CCc1ccc(-n2c(SCC(=O)Nc3ccc(C(=O)O)cc3)nnc2-c2ccncc2)cc1` here?
Its value is inactive: 21.3%.

For `Cc1cccc(N2CCN(c3ccc(C(=O)O)cc3NC(=O)c3ccccc3F)CC2C)c1` (centres undefined), which Potency is on record?
The Potency was inconclusive: 13 µM [inhibitor, partial curve, poor fit].

For `COc1cccc(NC(=O)C(=O)NCC2CCCN2S(=O)(=O)c2ccccc2)c1` (centres undefined), which Potency is on record?
The Potency was inconclusive: 20.6 µM [inhibitor, single point].

For `COC(=O)N1CCC2(CC1)CN(c1ccc(-c3ccccc3)cc1)C2`, which “activity change, negative = growth inhibition” value is on record?
The value was inactive: -22.7%.

Which “activity change, negative = growth inhibition” value does the source give for `Cn1c(=O)n(CCc2ccccc2)c(=O)c2c1nc1n2CCN1c1ccc(Cl)cc1` here?
Its value is inactive: -13.1%.

For `COc1ccc(OC)c(C(O)c2ncc(-c3ccc(C(F)(F)F)cc3)[nH]2)c1` (centres undefined), which Potency is on record?
The Potency was inconclusive: 18.4 µM [inhibitor, single point].

With `CN1CCC(N(C)C(=O)COc2ccccc2-c2ccccc2)CC1` as the compound, how does the Potency read?
The Potency was inconclusive: 29.1 µM [inhibitor, single point].

Which Potency does the source give for `Cc1cccc(C)c1-n1nnnc1SCSc1nnnn1-c1c(C)cccc1C` here?
The Potency was inconclusive: 25.9 µM [inhibitor, single point].

With `CC(C(=O)Nc1ccccc1C(F)(F)F)n1nc(-c2ccccc2)c2c(c1=O)CCCC2` (centres undefined) as the compound, how does the Potency read?
Its Potency is active: 16.4 µM.

Which Potency does the source give for `CC(=O)C1=C(O)C(=Cc2ccccc2)OC1=O` here?
Its Potency is inconclusive: 29.1 µM [inhibitor, single point].

With `Cc1noc(C)c1S(=O)(=O)N1CCCN(C(=O)/C=C/c2ccccc2F)CC1` as the compound, how does the Potency read?
Its Potency is inconclusive: 20.6 µM [inhibitor, single point].

Which “activity change, negative = growth inhibition” value does the source give for `COC(=O)c1cc(NC(=O)c2c(C)noc2C)ccc1N1CCOCC1` here?
The value was inactive: 1.2%.

Which Potency does the source give for `O=C(NN=Cc1ccccc1Cl)c1cccc2ccccc12` here?
The Potency was inconclusive: 0.517 µM [inhibitor, full curve].

For `O=C(CN1C(=O)c2cccc3cccc1c23)Nc1ccccc1C(=O)NCc1ccco1`, which Potency is on record?
The Potency was inconclusive: 29.1 µM [inhibitor, single point].

With `CC(C)CC(=O)Nc1c(C(=O)N2CCN(c3ccccc3F)CC2)oc2ccccc12` as the compound, how does the Potency read?
The Potency was active: 10.3 µM.

With `Cc1cc(C)c2c(-n3cccc3)c(C(=O)NCCc3ccccc3)sc2n1` as the compound, how does the Potency read?
Its Potency is inconclusive: 23.1 µM [inhibitor, single point].

For `CC(=O)c1ccc(N2CCN(C(=O)Nc3cccc(F)c3)CC2)cc1`, which Potency is on record?
The Potency was inconclusive: 16.4 µM [inhibitor, single point] and inconclusive: 29.1 µM [inhibitor, single point].

For `Cc1c(CNC(=O)c2nn3c(c2Cl)NC(c2ccccc2)CC3C(F)(F)F)cnn1C` (centres undefined), which Potency is on record?
Its Potency is inconclusive: 23.1 µM [inhibitor, partial curve].

Which Potency does the source give for `CCOC(=O)c1c(CSc2ccsc2)n(C)c2cc(Br)c(O)c(CN(C)C)c12` here?
The Potency was active: 23.1 µM.

For `CCOC(=O)c1sc(/S(C)=N\S(=O)(=O)c2cccc(Cl)c2)c2c1CCC=C2` (centres undefined), which Potency is on record?
Its Potency is active: 16.4 µM.

Which “activity change, negative = growth inhibition” value does the source give for `Cc1cccc(-c2nsc(SCC(=O)NCC3CCCO3)n2)c1` (centres undefined) here?
Its value is inactive: -25%.

With `CN(C)Cc1ccccc1-c1nccc(NCc2cccs2)n1` as the compound, how does the Potency read?
Its Potency is inconclusive: 13 µM [inhibitor, partial curve, poor fit].

For `COc1ccc(CC(=O)Nc2cccc(-c3nnc(-c4ccccc4)o3)c2)cc1OC`, which Potency is on record?
Its Potency is active: 2.31 µM.

With `O=C(Nc1ccc(O)cc1)c1cc2n(n1)C(C(F)(F)F)CC(c1ccco1)N2` (centres undefined) as the compound, how does the Potency read?
The Potency was active: 7.31 µM.

For `C#CCOCCOCCOCCNc1nc(N2CCN(C(=O)CCCCCCCCCCNC(=O)[C@H](CO)n3cc(CCCSC)nn3)CC2)nc(N2CCN(C(=O)CCCCCCCCCCNC(=O)[C@H](CCCCN)n3cc(CCO)nn3)CC2)n1`, which Potency is on record?
Its Potency is inconclusive: 32.6 µM [inhibitor, single point].

With `CCCCn1c(-c2ccc(C)cc2)c(C)n2c3c(=O)n(C)c(=O)n(C)c3nc12` as the compound, how does the Potency read?
The Potency was inconclusive: 14.6 µM [inhibitor, partial curve, poor fit].

With `COc1ccc(C2(c3ccc(OC)cc3)NC(=O)N(Cn3nnc4ccccc4c3=O)C2=O)cc1` as the compound, how does the Potency read?
The Potency was inconclusive: 16.4 µM [inhibitor, partial curve].

With `COc1ccccc1OCC(O)CNCc1ccc2c(c1)OCO2` (centres undefined) as the compound, how does the activity change, negative = growth inhibition read?
Its activity change, negative = growth inhibition is inconclusive: -32.6% [inhibitor].

With `Cc1cccc(OCC(=O)NCCCNC(=O)c2cnccn2)c1` as the compound, how does the “activity change, negative = growth inhibition” value read?
The value was inactive: -8.71%.

Which Potency does the source give for `Cc1nc2ccccc2n1C1CCN(CC(=O)Nc2ccccc2Br)CC1` here?
Its Potency is active: 13 µM.

For `Cc1ccccc1-c1noc(CSc2nnc(-c3ccncc3)n2-c2ccc(F)cc2)n1`, which Potency is on record?
The Potency was active: 14.6 µM.

With `OCC1OC(n2ccc3c(SCc4ccccc4)ncnc32)C(O)C1O` (centres undefined) as the compound, how does the Potency read?
The Potency was inconclusive: 2.06 µM [inhibitor, partial curve].
